Source: PubChem BioAssay AID624418 (National Center for Advancing Translational Sciences (NCATS), 2012)
Where “and” joins values, the source holds several entries; their conditions need not be identical. Equal values may be shown once. Screen size: about 410,000 compounds; about 530 (0.13%) were called active. Inconclusive means that the source gave no clear call. Such entries were picked first, then a sample of the others. Calls follow the shape of the dose curve; as a rule, active = well fitted inhibition curve with a large enough effect; inconclusive = small, poorly fitted or top-dose-only effect, or another doubt; inactive = no such curve, though single readings can be large or run the other way. Potencies of inconclusive entries are doubtful fits and often do not repeat.

test: qHTS of GLP-1 Receptor Inverse Agonists: Cytotox Screen; conditions: HEK293 cAMP-luciferase reporter cells, luminescence, 24 h; activity change, negative = inhibition: at 38.3 µM (top of the series) unless noted
Method in brief: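 MLSMR compounds, 24 hr on cells at 37 deg C/5% CO2; luminescence after luciferase reagent (12 min RT). Inhibition counted as the undesired cytotoxic outcome.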
% is scaled to controls: 0 for no effect and ±100 for the full control effect; potency is read from the fitted curve at half-maximal effect.

SMILES	Potency	activity change, negative = inhibition
C/C(=N\NC(=O)c1ccc(Cl)c(Cl)c1)c1ccccn1	inconclusive: 3.16 µM [inhibitor, partial curve, poor fit]	–
Nc1cc2[nH]c(=O)c3ccccc3c2cc1[N+](=O)[O-]	inconclusive: 0.282 µM [inhibitor, full curve, poor fit]	–
CCOC(=O)N1CCN(Cc2nc3cc(NC(=O)c4ccccc4OC)ccc3n2C(C)C)CC1	inconclusive: 3.55 µM [inhibitor, partial curve, poor fit]	–
Cc1ccc(-n2c(=O)c3ccc(C(=O)NCc4ccco4)cc3n(Cc3ccc(Cl)cc3)c2=O)cc1	inconclusive: 14.1 µM [inhibitor, single point]	–
COc1ccc(CNC(=O)c2nc(S(=O)(=O)Cc3ccccc3)ncc2Cl)cc1	inconclusive: 28.2 µM [inhibitor, single point] and inconclusive: 10 µM [inhibitor, partial curve, poor fit]	–
COc1cc2c(cc1OC)CN(C(=O)c1ccc3nc[nH]c3c1)CC2	inconclusive: 2.24 µM [inhibitor, full curve]	–
N#Cc1cc2[nH]c3ccccc3c2[n+](-c2ccc([N+](=O)[O-])cc2)c1N	inconclusive: 28.2 µM [inhibitor, single point]	–
Cc1cccc(NC(=O)/C(=C\c2ccco2)NC(=O)c2cccs2)c1	–	inactive: -21.1%
Cc1ccccc1NC(=S)N(Cc1ccccn1)Cc1ccccc1Cl	inconclusive: 28.2 µM [inhibitor, single point]	–
O=C(Nc1cccc(S(=O)(=O)NCc2ccco2)c1)c1cc(-c2ccccc2)nc2ccccc12	inconclusive: 8.91 µM [inhibitor, partial curve, poor fit]	–
CCCCN(CC)CCNC(=O)c1ccc2c(Cl)c3c(nc2c1)CCC3	inconclusive: 20 µM [inhibitor, single point]	–
Cc1ccc(C(C)C)c(OCC(O)CN(C)Cc2ccccc2)c1 (stereo not given)	inconclusive: 28.2 µM [inhibitor, single point]	–
Cc1ccc2c(c1)NC(=O)CC(c1ccccc1)=N2	inconclusive: 28.2 µM [inhibitor, single point]	–
O=C(N1CCCC1)C12CC3CC(CC(C3)C1)C2	inconclusive: 14.1 µM [inhibitor, single point]	–
COc1cc(CCC(=O)N2CCN(c3ccc([N+](=O)[O-])cc3)CC2)cc(OC)c1OC	inconclusive: 10 µM [inhibitor, partial curve, poor fit]	–
COc1ccc(Oc2nc3c(C)cccn3c(=O)c2/C=C(\C#N)c2nc3ccccc3[nH]2)cc1	–	inactive: -1.98%
COc1cccc(C2C(C#N)=C(C)NC3=C2C(=O)CC(C)(C)C3)c1 (stereo not given)	–	inactive: 51.9%
Cc1ccn2c(Nc3ccc4c(c3)OCO4)c(-c3ccccn3)nc2c1	inconclusive: 28.2 µM [inhibitor, single point]	–
COc1ccc2[nH]c(-c3ccc(C)cc3)cc(=O)c2c1	–	inactive: 0%
Oc1ccc2ccccc2c1/C=N/c1nc2c(s1)CCCC2	inconclusive: 8.91 µM [inhibitor, partial curve, poor fit]	–

SMILES	Potency	activity change, negative = inhibition
CCCOc1cccc(C2c3c(oc4ccc(F)cc4c3=O)C(=O)N2Cc2ccc3c(c2)OCO3)c1 (stereo not given)	–	inactive: -1.39%
O=C(/C=C/c1ccccc1[N+](=O)[O-])Nc1ccccc1	–	inactive: -20.2%
Cc1ccc2nc(N3CCN(c4ccccc4F)CC3)c3nnnn3c2c1	–	inactive: 2.05%
O=C(c1[nH]c(C(F)(F)F)nc1-c1ccccc1)N1CCN(c2cccc(C(F)(F)F)n2)CC1	inconclusive: 1 µM [inhibitor, full curve, poor fit]	–
Cc1ccccc1-c1ocnc1C(=O)Nc1ccccc1NC(=O)c1ccccn1	inconclusive: 0.891 µM [inhibitor, full curve, poor fit]	–
Cc1nn(Cc2c(F)c(F)c(F)c(F)c2F)c(C)c1NC(=O)c1c(-c2ccccc2)nn(-c2ccccc2)c1C	inconclusive: 10 µM [inhibitor, single point]	–
CC(C)(C)OC(=O)N[C@@H](Cc1ccccc1)c1nnc(S(=O)(=O)Cc2cccc(F)c2)o1	inconclusive: 22.4 µM [inhibitor, partial curve, poor fit]	–
Cc1cc(C(=O)N/N=C/c2ccc(C)o2)c2ccccc2n1	inconclusive: 1.41 µM [inhibitor, full curve, poor fit]	–
O=C(NCc1ccco1)Nc1cccc(-c2ccccc2)c1	–	inactive: 3.95%
CC1CN(c2nc3ccccc3nc2SCC(=O)Nc2cccc(C(F)(F)F)c2)CC(C)O1 (stereo not given)	inconclusive: 31.6 µM [inhibitor, single point]	–
O=c1cc2oc3cc(O)c(O)cc3c(-c3ccccc3[N+](=O)[O-])c-2cc1O	inconclusive: 12.6 µM [inhibitor, partial curve, poor fit]	–
COc1ccc(C(=O)Nc2ccccc2C(=O)N2CCOCC2)cc1OC	inconclusive: 28.2 µM [inhibitor, single point]	–
C=CCn1c(-c2cc(-c3ccccc3)sc2N)n[nH]c1=S	inconclusive: 11.2 µM [inhibitor, partial curve, poor fit]	–
CCc1cccc(NC(=O)c2sc3nc[nH]c(=O)c3c2C)c1	–	inactive: 4.28%
COc1ccc(/C=C\C(=O)c2c(O)ccc3c(C)cc(=O)oc23)cc1OC	inconclusive: 22.4 µM [inhibitor, partial curve, poor fit]	–
CN1CCN(c2ccc(NC(=O)c3ccc4c(c3)[nH]c(=O)n4Cc3ccc(F)cc3)cc2)CC1	inconclusive: 12.6 µM [inhibitor, partial curve, poor fit]	–
CCOC(=O)c1ccc(-c2cc(C)no2)[nH]1	inconclusive: 17.8 µM [inhibitor, single point]	–
Cc1ccc(CNC(=O)c2cnn3c(C)c(Cc4c(F)cccc4Cl)c(C)nc23)cc1	–	inactive: 3.68%
Cc1ccccc1-n1nnnc1Sc1nnnn1-c1ccccc1	inconclusive: 11.2 µM [inhibitor, partial curve, poor fit]	–
CCOc1ccc(CCNC(=O)c2ccc(C)c(-n3c(C)nc4cccnc43)c2)cc1OCC	–	inactive: 1.74%
